Assay results: patent US20240226318A1 (JIANGSU MABWELL HEALTH PHARMACEUTICAL R AND D, published 2024)

B1: hH2L1 (antibody, human IgG1, kappa)
heavy: EVQLQESGPGLVKPSETLSLTCTVSGFSLIDYGVSWIRQPPGKGLEWIGVIWGGGKIYYNSVLKSRVTISKDNSKSQVSLKLSSVTAADTAVYYCAKQGGLLFYAMDYWGQGTLVTVSSASTKGPSVFPLAPSSKSTSGGTAALGCLVKDYFPEPVTVSWNSGALTSGVHTFPAVLQSSGLYSLSSVVTVPSSSLGTQTYICNVNHKPSNTKVDKRV[gap - human IgG1 Fc]
light: DIVMTQSPDSLAVSLGERATINCKSSQSLLNTYSQKNYLAWYQQKPGQPPKLLIYFASTRESGVPDRFSGSGSGTDFTLTISSLQAEDVAVYYCQQHYNTPFTFGGGTKVEIKRTVAAPSVFIFPPSDEQLKSGTASVVCLLNNFYPREAKVQWKVDNALQSGNSQESVTEQDSKDSTYSLSSTLTLSKADYEKHKVYACEVTHQGLSSPVTKSFNRGEC
notes: also called anti-Nectin-4 antibody hH2L1; naked antibody
B2: antibody-drug conjugate 3d (hH2L1 conjugated with drug-containing linker C-3) (antibody, human IgG1, kappa)
heavy: EVQLQESGPGLVKPSETLSLTCTVSGFSLIDYGVSWIRQPPGKGLEWIGVIWGGGKIYYNSVLKSRVTISKDNSKSQVSLKLSSVTAADTAVYYCAKQGGLLFYAMDYWGQGTLVTVSSASTKGPSVFPLAPSSKSTSGGTAALGCLVKDYFPEPVTVSWNSGALTSGVHTFPAVLQSSGLYSLSSVVTVPSSSLGTQTYICNVNHKPSNTKVDKRV[gap - human IgG1 Fc]
light: DIVMTQSPDSLAVSLGERATINCKSSQSLLNTYSQKNYLAWYQQKPGQPPKLLIYFASTRESGVPDRFSGSGSGTDFTLTISSLQAEDVAVYYCQQHYNTPFTFGGGTKVEIKRTVAAPSVFIFPPSDEQLKSGTASVVCLLNNFYPREAKVQWKVDNALQSGNSQESVTEQDSKDSTYSLSSTLTLSKADYEKHKVYACEVTHQGLSSPVTKSFNRGEC
modifications: drug-containing linker C-3 site-specifically conjugated to the reduced disulfide bonds of the antibody, DAR 4.0; the conjugated residues are not numbered; drug-containing linker C-3 site-specifically conjugated to the reduced disulfide bonds of the antibody, maleimide ring opened by hydrolysis (formula Ib), DAR 4.0; the conjugated residues are not numbered
notes: also called ADC 3d; the ADC of interest

Experiments:
[1] = biological target: T1, recombinant extra-cellular domain of human Nectin-4 protein (human, UniProt Q96NY8 32-349); assay: BIAcore (SPR), antibody captured on chip, human Nectin-4 protein injected at 0.391-50 nM
T1 construct: extracellular domain; Bought protein; also called Human Nectin-4 protein (purchased from Novoprotein Scientific Inc.); the antigen
T1 sequence (looked up): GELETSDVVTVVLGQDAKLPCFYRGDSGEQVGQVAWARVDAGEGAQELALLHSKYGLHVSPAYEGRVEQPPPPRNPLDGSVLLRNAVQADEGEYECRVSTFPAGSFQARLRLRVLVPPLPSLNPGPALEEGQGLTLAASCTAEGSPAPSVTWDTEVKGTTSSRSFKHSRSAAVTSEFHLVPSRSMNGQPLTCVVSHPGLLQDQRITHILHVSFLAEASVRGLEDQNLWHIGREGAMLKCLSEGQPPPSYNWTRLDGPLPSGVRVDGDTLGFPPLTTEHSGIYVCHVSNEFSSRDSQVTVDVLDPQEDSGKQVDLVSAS

[2] = biological target: T1, recombinant extra-cellular domain of …; assay: BIAcore (SPR), ADC captured on chip, human Nectin-4 protein injected at 0.391-50 nM
[3] = biological target: T1, recombinant extra-cellular domain of …; assay: BIAcore (SPR), reference Padcev

Binder	Kd [1] [nM]	koff [1] [s⁻¹]	kon [1] [M⁻¹ s⁻¹]	Kd [2] [nM]	koff [2] [s⁻¹]	kon [2] [M⁻¹ s⁻¹]	fold affinity against Padcev [3] [fold]
B1	2.58	0.00145	562000	–	–	–	–
B2	–	–	–	2.41	0.00142	589000	~2
